The text below walks through data of article PMC4559445.

These are yes or no findings as the source states them, for the method shown. Some results given as binding are weak or reduced against the parent protein; the word gives no strength. Sequences can lack the tags named with a protein.

The target of test [1] is T1, ScGpa2, G-alpha protein of S. cerevisiae (two-hybrid fusion) (S. cerevisiae) (UniProt P10823).
T1 sequence: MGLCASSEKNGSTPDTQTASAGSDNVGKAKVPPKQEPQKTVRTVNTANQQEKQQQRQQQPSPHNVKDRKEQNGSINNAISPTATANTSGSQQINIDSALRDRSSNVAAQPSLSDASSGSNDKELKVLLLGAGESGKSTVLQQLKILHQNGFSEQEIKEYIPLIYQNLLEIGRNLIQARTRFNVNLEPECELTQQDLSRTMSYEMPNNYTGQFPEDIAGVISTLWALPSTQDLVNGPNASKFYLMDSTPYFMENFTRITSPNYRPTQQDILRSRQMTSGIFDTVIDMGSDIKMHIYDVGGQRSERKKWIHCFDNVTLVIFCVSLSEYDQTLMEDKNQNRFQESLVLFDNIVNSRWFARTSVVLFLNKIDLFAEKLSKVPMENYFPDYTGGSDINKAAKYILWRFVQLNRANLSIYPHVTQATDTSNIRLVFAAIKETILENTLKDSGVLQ
Description: two-hybrid; Matchmaker GAL4 Two-Hybrid System 3; yeast AH109 co-transformed with pGBKT7 bait and pGADT7 prey; growth on SD-Ade/-His/-Leu/-Trp plates and blue colonies on alpha-X-gal; genes swapped between the vectors, positive only if positive in both.

In test [2] the target is T2, ScBcy1, PKA regulatory subunit of S. cerevisiae (two-hybrid fusion) (S. cerevisiae) (UniProt P07278).
T2 sequence: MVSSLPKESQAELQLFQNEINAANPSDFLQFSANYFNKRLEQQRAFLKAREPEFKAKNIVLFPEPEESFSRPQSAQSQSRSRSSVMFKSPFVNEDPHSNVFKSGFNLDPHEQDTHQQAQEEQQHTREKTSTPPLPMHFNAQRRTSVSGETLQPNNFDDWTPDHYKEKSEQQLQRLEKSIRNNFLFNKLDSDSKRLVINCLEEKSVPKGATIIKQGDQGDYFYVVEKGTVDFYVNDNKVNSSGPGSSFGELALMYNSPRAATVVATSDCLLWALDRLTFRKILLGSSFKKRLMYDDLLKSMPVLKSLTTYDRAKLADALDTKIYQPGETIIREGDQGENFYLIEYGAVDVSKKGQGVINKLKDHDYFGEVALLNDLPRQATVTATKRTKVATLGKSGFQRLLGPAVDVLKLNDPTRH
Described as above.

B1: ScCyr1^(350-480), G-alpha association domain of S. cerevisiae adenylate cyclase (two-hybrid fusion) (domain or fragment, UniProt P08678 350-480)
chain: TPEYNENIPENSNSDNKREATTPTIETPISCKPSLFRLDTNLEDVTDITKTVPPTAVNSTLNSTHGTETASPKTVIMPEGPRKSVSMADLSVAAAAPNGEFTSTSNDRSQWVAPQSWDVETKRKKTKPKGR
Turning to B1, in test [1], the binding entry was “binds”.

B2: ScCyr1^(1-365), N-terminal domain of S. cerevisiae adenylate cyclase (two-hybrid fusion) (domain or fragment, UniProt P08678 1-365)
chain: MSSKPDTGSEISGPQRQEEQEQQIEQSSPTEANDRSIHDEVPKVKKRHEQNSGHKSRRNSAYSYYSPRSLSMTKSRESITPNGMDDVSISNVEHPRPTEPKIKRGPYLLKKTLSSLSMTSANSTHDDNKDHGYALNSSKTHNYTSTHNHHDGHHDHHHVQFFPNRKPSLAETLFKRFSGSNSHDGNKSGKESKVANLSLSTVNPAPANRKPSKDSTLSNHLADNVPSTLRRKVSSLVRGSSVHDINNGIADKQIRPKAVAQSENTLHSSDVPNSKRSHRKSFLLGSTSSSSSRRGSNVSSMTNSDSASMATSGSHVLQHNVSNVSPTTKSKDSVNSESADHTNNKSEKVTPEYNENIPENSNSDN
Consider B2, for which the binding result in test [1] is recorded as “no binding”.

B3: ScGpr1^(679-961), ScGpa2 association domain of the GPCR Gpr1 of S. cerevisiae (two-hybrid fusion) (domain or fragment, UniProt Q12361 679-961)
chain: KEKPWNYSWAKTESKYLIEKYILKGELGEKEILKFCHSNWGKRGWYYRGKWKKRKCWKYSTNPLKRILWFVERFFKQLFELKLHFSFYDNCDDFEYWENYYSAKDSNDNKRTESDETKTNSSDRSLPSNSLELQAMLNNITAEEVEVPLFWRIIHHIPMLGGIDLDELNRLLKIRYNNDHFSLPGLKFALNQNKSHDKHQDVSTNSMVKSSFFSSNIVTNDDENSIEEDKNLRYSDASASENYLVKPTIPGTTPDPIIEAQNDNDSSDSSGIDLIAFLRNGPL
For B3, the binding entry in test [1] is given as “binds”.

B4: ScTpk2, PKA catalytic subunit of S. cerevisiae (two-hybrid fusion) (enzyme, UniProt P06245 1-380)
chain: MEFVAERAQPVGQTIQQQNVNTYGQGVLQPHHDLQQRQQQQQQRQHQQLLTSQLPQKSLVSKGKYTLHDFQIMRTLGTGSFGRVHLVRSVHNGRYYAIKVLKKQQVVKMKQVEHTNDERRMLKLVEHPFLIRMWGTFQDARNIFMVMDYIEGGELFSLLRKSQRFPNPVAKFYAAEVILALEYLHAHNIIYRDLKPENILLDRNGHIKITDFGFAKEVQTVTWTLCGTPDYIAPEVITTKPYNKSVDWWSLGVLIYEMLAGYTPFYDTTPMKTYEKILQGKVVYPPYFHPDVVDLLSKLITADLTRRIGNLQSGSRDIKAHPWFSEVVWERLLAKDIETPYEPPITSGIGDTSLFDQYPEEQLDYGIQGDDPYAEYFQDF
As for B4, in test [2], the binding entry is “binds”.

B5: ScCyr1^(600-800), RAS-association domain of S. cerevisiae adenylate cyclase (two-hybrid fusion) (domain or fragment, UniProt P08678 600-800)
chain: SSYTNAYMEANREQDNKTPILNKTKSYTKKFTSSSVNMNSPDGAQSSGLLLQDEKDDEVECQLEHYYKDFSDLDPKRHYAIRIFNTDDTFTTLSCTPATTVEEIIPALKRKFNITAQGNFQISLKVGKLSKILRPTSKPILIERKLLLLNGYRKSDPLHIMGIEDLSFVFKFLFHPVTPSHFTPEQEQRIMRSEFVHVDLR
On to B5, for which the binding entry in test [1] is on record as “no binding”.
